Results published in the supplement of paper PMC12217912.
Some of the results follow. Sequences were assembled here from the parent chain. Inactive controls read about 0.05.

B1: TEV protease; numbered along this chain (parent)
chain: MGESLFKGPRDYNPISSSICHLTNESDGHTTSLYGIGFGPFIITNKHLFRRNNGTLVVQSLHGVFKVKDTTTLQQHLVDGRDMIIIRMPKDFPPFPQKLKFREPQREERICLVTTNFQTKSMSSMVSDTSCTFPSGDGIFWKHWIQTKDGQCGSPLVSTRDGFIVGIHSASNFTNTNNYFTSVPKNFMELLTNQEAQQWVSGWRLNADSVLWGGHKVFMVKPEEPFQPVKEATQL

Variants of: B1
Assay: raw area under fraction-flipped curve 0-4 h after induction (AUC4h, not background-subtracted), DNA-recorder readout of cleavage of the substrate (dimensionless); higher = more cleavage of the substrate by the protease variant
Details: temperature: 34 °C; time window: 0-4 h after rhamnose induction
Protocol: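 In vivo DNA recorder in E. coli TOP10(DE3) ΔrhaA at 34 °C. Each TEVp single-site mutant (parent TEVp 0) is paired with a single-site variant of the 7-mer TEVs (canonical ENLYFQ|S). The substrate sits between flexible linkers in a Bxb1-sfGFP-TEVs-SsrA fusion, so cleavage stabilises Bxb1 and speeds flipping of a recombination array, read by NGS. The value is the raw area under the fraction-flipped curve over 0-4 h after rhamnose induction (AUC4h), with ≥20 reads per time point. It is not background-subtracted; inactive controls average about 0.047.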
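Further: Bxb1 expression induced with 0.2% (w/v) L-rhamnose at OD600 near 0.5, cultures sampled hourly, flipped fraction per protease–substrate barcode pair counted by paired-end Illumina sequencing.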

Variant	area with substrate ENLCFQS	area with substrate ENLFFQS	area with substrate ENLGFQS	area with substrate ENLHFQS	area with substrate ENLPFQS	area with substrate ENLQFQS	area with substrate ENLRFQS	area with substrate ENLWFQS	area with substrate ENLIFQS	area with substrate ENLSFQS	area with substrate ENLDFQS	area with substrate ENLEFQS	area with substrate ENLKFQS	area with substrate ENLLFQS	area with substrate ENLMFQS	area with substrate ENLNFQS	area with substrate ENLVFQS	area with substrate ENLTFQS
MGESLFKGPRDYNPISSSICHLTNESDGHTTSLYGIGFGPFIITNKHLFRRNNGTLVVQSLHGVFKVKDTTTLQQHLVDGRDMIIIRMPKDFPPFPQKLKFREPQREERICLVTTNFQTKSMSSMVSDTSCTFPSGDGIFWKHWIQTKDGQCGSPLVSTRDGFIVGIHSASNFTNTNNYFTSVPKNFMELLTNQEAQQWVSGWRLNADDVLWGGHKVFMVKPEEPFQPVKEATQL [S209D]	0.0689	0.0881	0.0479	0.0681	0.0518	0.0653	0.0701	0.0622	–	–	–	–	–	–	–	–	–	–
MGESLFKGPRDYNPISSSICHLTNESDGHTTSLYGIGFGPFIITNKHLFRRNNGTLVVQSLHGVFKVKDTTTLQQHLVDGRDMIIIRMPKDFPPFPQKLKFREPQREERICLVTTNFQTKSMSSMVSDTSCTFPSGVGIFWKHWIQTKDGQCGSPLVSTRDGFIVGIHSASNFTNTNNYFTSVPKNFMELLTNQEAQQWVSGWRLNADSVLWGGHKVFMVKPEEPFQPVKEATQL [D137V]	0.089	0.0907	–	0.0703	0.0749	–	–	–	0.111	0.0608	–	–	–	–	–	–	–	–
MGESLFKGPRDYNPISSSICHLTNESDGHTTSLYGIGFGPFIITNKHLFRRNNGTLVVQSLHGVFKVKDTTTLQQHLVDGRDMIIIRMPKDFPPFPQKLKFREPQREERICLVTTNFQTKSMSSMVSDTSCTFPSGDGIFWKHWIQTKDGQCGSPLVSTRDGFIVGIHSASNFTNTNNYFTSVPKNFMELLTNQEAQQWVSGWRLNADSVLWGGHKVFWVKPEEPFQPVKEATQL [M219W]	0.0194	0.0687	–	–	0.0527	–	0.0819	–	0.0946	0.0733	0.0999	0.0651	0.0652	0.0855	0.0737	0.0637	–	–
MGESLFKGPRDYNPISSSICHLTNESDGHTTSYYGIGFGPFIITNKHLFRRNNGTLVVQSLHGVFKVKDTTTLQQHLVDGRDMIIIRMPKDFPPFPQKLKFREPQREERICLVTTNFQTKSMSSMVSDTSCTFPSGDGIFWKHWIQTKDGQCGSPLVSTRDGFIVGIHSASNFTNTNNYFTSVPKNFMELLTNQEAQQWVSGWRLNADSVLWGGHKVFMVKPEEPFQPVKEATQL [L33Y]	0.0494	–	–	0.0582	0.0646	0.0564	0.109	–	0.063	0.0721	0.0596	0.0718	0.0651	–	0.0521	0.0608	0.0502	–
MGESLFKGPRDYNPISSSICHLTNESDGHTTSLYGIGFGPFIITNKHLFRRNNGTLVVQSLHGVFKVKDLTTLQQHLVDGRDMIIIRMPKDFPPFPQKLKFREPQREERICLVTTNFQTKSMSSMVSDTSCTFPSGDGIFWKHWIQTKDGQCGSPLVSTRDGFIVGIHSASNFTNTNNYFTSVPKNFMELLTNQEAQQWVSGWRLNADSVLWGGHKVFMVKPEEPFQPVKEATQL [T70L]	0.0641	0.0629	0.071	0.0456	0.0614	–	0.0517	–	–	0.0667	0.0588	0.0754	0.0635	–	0.0589	0.0732	0.0773	–
MGESLFKGPRDYNPISSSICHLTNESDGHTTSLYGIGFGPFIITNKHLFRRNNGTLVVQSLHGVFKVKDTTTLQQHLVDGRDMIIIRMPKDFPPFPQKLKFREPQRLERICLVTTNFQTKSMSSMVSDTSCTFPSGDGIFWKHWIQTKDGQCGSPLVSTRDGFIVGIHSASNFTNTNNYFTSVPKNFMELLTNQEAQQWVSGWRLNADSVLWGGHKVFMVKPEEPFQPVKEATQL [E107L]	0.0603	0.0683	–	–	–	0.0812	0.0723	0.0752	0.0949	–	0.0654	–	0.0672	–	–	0.0637	–	–
MGESLFKGPRDYNPISSSICHLTNESDGHTTSLYGIGFGPFIITNKHLFRRNNGTLVVQSLHGVFKVKDTTTLQQHLVDGRDMIIIRMPKDFPPFPQKLKFREPQREERICLVTTNFQTKSMSSMVSDTSCTMPSGDGIFWKHWIQTKDGQCGSPLVSTRDGFIVGIHSASNFTNTNNYFTSVPKNFMELLTNQEAQQWVSGWRLNADSVLWGGHKVFMVKPEEPFQPVKEATQL [F133M]	0.0735	0.0989	0.0745	0.062	0.061	0.0737	0.0597	–	0.0796	0.0792	0.0704	0.0625	0.0888	0.062	0.076	0.0706	0.0806	–
MGESLFKGPRDYNPISSSICHLTNESDGHTTSLYGIGFGPFIITNKHLFRRNNGTLVVQSLHGVFKVKDTTTLQQHLVDGRDMIIIRMPKDFPPFPQKLKFREPQREERIDLVTTNFQTKSMSSMVSDTSCTFPSGDGIFWKHWIQTKDGQCGSPLVSTRDGFIVGIHSASNFTNTNNYFTSVPKNFMELLTNQEAQQWVSGWRLNADSVLWGGHKVFMVKPEEPFQPVKEATQL [C111D]	0.0578	0.0601	–	0.0593	0.0555	–	0.0512	0.0444	0.0635	0.0591	0.0655	–	0.0709	–	0.0761	0.0715	0.0525	–
MGESLFKGPRDYNPISSSICHLTNESDGHTTSLYGIGFGPFIITNKHLFRRNNGTLVVQSLHGVFKVKDTTTLQQHLVDGRDMIIIRMPKDFPPFPQKLKFREPQREERICLVTTNFQTKSMSSMVSDTSCTFPSGDGIFWKHWVQTKDGQCGSPLVSTRDGFIVGIHSASNFTNTNNYFTSVPKNFMELLTNQEAQQWVSGWRLNADSVLWGGHKVFMVKPEEPFQPVKEATQL [I145V]	0.0633	–	–	–	–	0.0419	–	0.0696	–	0.058	0.0556	–	–	0.0833	0.0867	–	0.0977	0.0771
MGESLFKGPRDYNPISSSICHLTNESDGHTTSLYGIGFGPFIITNKHLFRRNNGTLVVQSLHGVFKVKDTTTLQQHLVDGRDMIIIRMPKDFPPFPQKLKFREPQREERICLVTTNFQTKSMSSMVSDTSMTFPSGDGIFWKHWIQTKDGQCGSPLVSTRDGFIVGIHSASNFTNTNNYFTSVPKNFMELLTNQEAQQWVSGWRLNADSVLWGGHKVFMVKPEEPFQPVKEATQL [C131M]	0.0601	0.0709	0.0692	–	0.0671	0.0608	–	–	0.058	–	0.051	0.068	–	–	–	0.0573	–	–
